Source: PubChem BioAssay AID493131 (Broad Institute, 2011)
The whole screen tested about 340,000 compounds, of which about 3,300 (0.97%) were called active. The inconclusive results got no clear call from the source; some entries with a clear call stand among them for comparison.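 The calls were made as follows: active = mean activation above about 17%, with every replicate also reaching it (limit read from the data, passing the limit was not always enough); inconclusive = only one of the two conditions met; inactive = the rest.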

What follows are compounds tested against Protein FosB (Mus musculus) (UniProt P13346) (assay: enhancers of mouse delta FosB DNA binding – biochemical, fluorescence polarization, TAMRA-CDK5 oligo, single point, primary screen (AID 493131;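 also: fluorescence polarization rise as delta FosB binds a TAMRA Cdk5 AP-1 oligo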)). Details: purified delta FosB, at 25 µM, active compounds read high, percent of positive-control signal above neutral wells.
Sequence of UniProt P13346 (P13346 whole entry, looked up): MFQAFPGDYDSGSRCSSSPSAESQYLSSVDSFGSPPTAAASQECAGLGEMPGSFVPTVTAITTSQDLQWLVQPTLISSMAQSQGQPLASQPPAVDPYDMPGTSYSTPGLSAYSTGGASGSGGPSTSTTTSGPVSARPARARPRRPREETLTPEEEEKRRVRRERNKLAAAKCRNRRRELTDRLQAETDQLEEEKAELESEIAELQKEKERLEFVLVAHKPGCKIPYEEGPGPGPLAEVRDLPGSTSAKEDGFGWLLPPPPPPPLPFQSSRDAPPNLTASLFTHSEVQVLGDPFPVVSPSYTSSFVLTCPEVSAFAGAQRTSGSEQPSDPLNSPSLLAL
In the case of `O=C(CCNC(=O)c1ccc(Cl)cc1)Nc1nc2ccccc2[nH]1`, the activation is reported as inconclusive: 16%. With `CC(/C=N/NC(=O)COc1ccccc1C)=N\NC(=O)COc1ccccc1C` the activation was active: 22.1%. With `Cn1cnnc1SCC(=O)Nc1cc(S(=O)(=O)N2CCCCCC2)ccc1Cl` the activation was inactive: -7.64%. For `CN(C)S(=O)(=O)c1ccc2c(c1)C(=O)c1cc(S(=O)(=O)N(C)C)ccc1CC2`, the activation was inactive: 2.59%. In the case of `CC(C)CNC(=S)N(Cc1ccco1)Cc1cc2cc3c(cc2[nH]c1=O)OCCO3`, the activation is reported as inconclusive: 22%. `COc1ccc(C(CCN2CCCC2)c2c(OC)cc(OC)c3c(-c4ccccc4)cc(=O)oc23)cc1` (stereo unspecified) was tested, and the activation was inconclusive: 16.5%. `CCN1CCN(Cc2ccc(NC(=O)c3ccc(C)c(NC(=O)c4cccc(-c5cn[nH]c(=O)c5)c4)c3)cc2C(F)(F)F)CC1` was tested, and the activation was inconclusive: 18.9%. `OCCN1CCN(c2nc(-c3ccccc3O)nc3ccccc23)CC1` was tested, and the activation was active: 24.1%. With `S=C(Nc1ccc(Cl)c(Cl)c1)N1CCN(c2ccccn2)CC1` the activation was inconclusive: 20%. `C#CCOCCOCCOCCNc1nc(N2CCN(C(=O)[C@H](CCCCN)n3cc([C@@H](N)CO)nn3)CC2)nc(N2CCN(C(=O)[C@H](CCCCN)n3cc([C@@H](N)CC(C)C)nn3)CC2)n1` was tested, and the activation was inconclusive: 22.8%. `Cc1cccc(NC(=O)NNC(=O)COc2ccc3ccccc3c2)c1` was tested, and the activation was inconclusive: 18.3%. With `Cc1cc(C)c2[nH]c(=O)c(CN(CC3CCCO3)S(=O)(=O)c3ccc4c(c3)OCCO4)cc2c1` (stereo unspecified) the activation was inactive: -22%. For `O=C(COc1ccc(Cl)cc1)Nc1cccc(-c2ccc(N3CCOCC3)nn2)c1`, the activation was inconclusive: 19.7%. `CN(C)c1nc(NCc2ccccc2)nc(N/N=C/c2ccc(Cl)cc2Cl)n1` was tested, and the activation was active: 17.4%. For `Cc1ccc(C)c(NC(=O)CCC(=O)NNC(=O)C(c2ccccc2)c2ccccc2)c1`, the activation was inconclusive: 50.1%. With `O=C(Cc1cccc2ccccc12)Nc1nc(-c2cccc([N+](=O)[O-])c2)cs1` the activation was inconclusive: 19.8%. With `COc1ccc(CNC(=O)Cn2nc(C)c3c(C)n(-c4ccc(C)cc4)nc3c2=O)cc1OC` the activation was inconclusive: 21.6%. For `O=C(COC(=O)c1cc(=O)[nH]c2ccccc12)Nc1nc(-c2cccc(Br)c2)cs1`, the activation was inconclusive: 25.7%. `O=C(Nc1nc(-c2ccc(Cl)cc2)cs1)c1cccnc1` was tested, and the activation was inconclusive: 29.2%. `CC(/C=N/NC(=O)c1cc(-c2cccs2)[nH]n1)=C\c1ccccc1` was tested, and the activation was inconclusive: 23.3%. With `COc1ccc(/C=N/NC(=O)c2cc(-c3ccccc3)nc3ccccc23)c(OC)c1` the activation was active: 22.6%. For `Nn1cnnc1N/N=C/c1cc([N+](=O)[O-])c(Cl)cc1Cl`, the activation was inconclusive: 21.9%. `CN1CCc2c(sc(NC(=O)c3ccc4ccccc4c3)c2C(N)=O)C1` was tested, and the activation was inactive: -17.8%. With `Clc1ccc2c(N/N=C/c3ccccc3Br)ccnc2c1` the activation was active: 45.7%. In the case of `COc1ccc2nc(NC(=O)c3cccc(OCc4c(C)noc4C)c3)sc2c1`, the activation is reported as inconclusive: 21.8%. For `Cc1cc(=O)oc2cc(OCC(=O)N/N=C/c3ccccc3[N+](=O)[O-])ccc12`, the activation was inconclusive: 17.7%. In the case of `CCCCNC(=O)C(=O)N/N=C/c1ccc(OCC(=O)Nc2cccc(OC)c2)c(OC)c1`, the activation is reported as inconclusive: 22.1%. For `CCCCOc1ccc(/C=C/C2=CC(C)(C)NC(=S)N2)cc1OCC`, the activation was inactive: -6.72%. In the case of `CCn1nc(C)c(/C=N/NC(=S)Nc2ccc(Cl)cc2Cl)c1C`, the activation is reported as inconclusive: 16.2%. `O=C(O)Cc1sc(Nc2ccc(F)cc2)nc1-c1cccs1` was tested, and the activation was inactive: 3.83%. In the case of `Cc1ccc(NC(=O)Cn2nnc(C(=O)Nc3ccc(F)c(Cl)c3)c2N)cc1`, the activation is reported as inconclusive: 17.6%. For `Cc1cc(NC(=O)c2ccc(S(=O)(=O)N3CCCC3)cc2)nc2c1c(=O)oc1ccccc12`, the activation was inconclusive: 17.6%. For `Cc1ccc(S(=O)(=O)N2CCN(C(=O)C(Cc3ccccc3)NC(=O)c3ccccc3)CC2)cc1` (stereo unspecified), the activation was active: 23.1%. For `Cc1ccc(C(=O)N/C(=C\c2ccc(-c3ccc(Br)cc3)o2)C(=O)NCCCN(C)C)cc1`, the activation was inconclusive: 17.6%. For `O=C(Nc1ccc(Cl)cc1)c1cc(-c2cccs2)on1`, the activation was inconclusive: 17.7%. `c1ccc2c(c1)CSc1sccc1C2=C1CCNCC1` was tested, and the activation was inconclusive: 28.7%. `O=C(NCc1ccc2c(c1)OCO2)C1CCCN(S(=O)(=O)c2cccc3nonc23)C1` (stereo unspecified) was tested, and the activation was inconclusive: 18.7%. In the case of `O=C(COC(=O)c1cccc(N2C(=O)c3ccccc3C2=O)c1)Nc1ccccc1`, the activation is reported as inconclusive: 22.2%. `O=C(CC(C(=O)NCc1ccccc1)c1nc2ccccc2c(=O)[nH]1)NCc1ccccc1` (stereo unspecified) was tested, and the activation was inconclusive: 20.4%. In the case of `Nc1nonc1-n1nnc(C(=O)N/N=C/c2ccc(OCc3ccc(F)cc3)cc2)c1COc1ccccc1`, the activation is reported as inconclusive: 17.9%. In the case of `CCN1CCN(Cc2ccc(NC(=O)c3ccc(C)c(NC(=O)C4=NN(c5ccccc5)C(=O)C4)c3)cc2C(F)(F)F)CC1`, the activation is reported as active: 66.3%. In the case of `COc1ccc2nc(C)cc(Nc3ccccc3O)c2c1`, the activation is reported as inconclusive: 16.4%. In the case of `COc1ccccc1-c1csc(NC(=O)c2ccc(N3C(=O)CCC3=O)cc2)n1`, the activation is reported as inconclusive: 33.3%. In the case of `COc1ccc(-c2nn(C)c3sc(C(=O)NCCN(C)C)cc23)cc1OC`, the activation is reported as active: 50.6%. `COc1cccc2sc(N(CCCN(C)C)C(=O)c3ccc(S(=O)(=O)N4CCc5ccccc5C4)cc3)nc12` was tested, and the activation was active: 30.1%. In the case of `O=C(COc1ccc(Cl)cc1)Nc1ccc2c(c1)C(=O)NC2=O`, the activation is reported as inconclusive: 17.4%. In the case of `O=C(Nc1ccc(NC(=O)c2ccccc2F)cc1)c1cccs1`, the activation is reported as inconclusive: 18.4%. For `Fc1ccccc1OCCSc1nnnn1-c1ccccc1`, the activation was inactive: 4.42%. With `O=C(C[C@H]1C/C=C\CC[C@H](Cc2ccc(F)cc2)C(=O)O[C@@H](c2ccccc2)CNC1=O)N[C@@H](CO)Cc1ccccc1` the activation was inconclusive: 25.7%. `Cc1ccccc1CNc1ccc(C(CC(N)=O)NC(=O)c2ccc(Br)cc2)cc1[N+](=O)[O-]` (stereo unspecified) was tested, and the activation was inconclusive: 43.2%. In the case of `COc1cc2c3nnc(-c4ccc(F)cc4)c-3cn(Cc3ccc(F)cc3)c2cc1OC`, the activation is reported as active: 36.6%.
